In the supplement of paper PMC12645437, “Orthogonal IMiD-Degron Pairs Induce Selective Protein Degradation in Cells” (ACS Chemical Biology, 2025):
This is one part of the list.

B1: Q9UKT9 (peptide)
chain: FHCEVCGAGFTQKGNLLRHIKL
B2: Q9UKT9 (peptide)
chain: FSCDQCGAVFTQKGNLLRHIKL
B3: Q9UKT9 (peptide)
chain: FACDICGANFTQKGNLLRHIKL
B4: Q9UKT9 (peptide)
chain: FHCPVCGAPFTQKGNLLRHIKL
B5: Q9UKT9 (peptide)
chain: FICNQCGATFTQKGNLLRHIKL
B6: Q9UKT9 (peptide)
chain: FKCEVCGASFTQKGNLLRHIKL
B7: Q9UKT9 (peptide)
chain: FACEQCGARFTQKGNLLRHIKL
B8: Q9UKT9 (peptide)
chain: FMCEVCGACFTQKGNLLRHIKL
B9: Q9UKT9 (peptide)
chain: LTCEICGFYCTQKGNLLRHIKL
B10: Q9UKT9 (peptide)
chain: FCCPICGREFTQKGNLLRHIKL
B11: Q9UKT9 (peptide)
chain: FYCEICGAMFTQKGNLLRHIKL
B12: Q9UKT9 (peptide)
chain: FCCNQCGAEFTQKGNLLRHIKL
B13: Q9UKT9 (peptide)
chain: LNCNQCGFVCTQKGNLLRHIKL
B14: Q9UKT9 (peptide)
chain: FVCNVCGAKFTQKGNLLRHIKL
B15: Q9UKT9 (peptide)
chain: LYCNQCGFPCTQKGNLLRHIKL
B16: Q9UKT9 (peptide)
chain: FICNICGADFTQKGNLLRHIKL
B17: Q9UKT9 (peptide)
chain: FWCEICGRQFTQKGNLLRHIKL
B18: Q9UKT9 (peptide)
chain: FVCDICGAEFTQKGNLLRHIKL
B19: Q9UKT9 (peptide)
chain: FFCSVCGHHFTQKGNLLRHIKL
B20: Q9UKT9 (peptide)
chain: FNCPICGALFTQKGNLLRHIKL
B21: Q9UKT9 (peptide)
chain: LGCEICGFDCTQKGNLLRHIKL
B22: Q9UKT9 (peptide)
chain: FCCEICGRMFTQKGNLLRHIKL
B23: Q9UKT9 (peptide)
chain: LACEICGFDCTQKGNLLRHIKL
B24: Q9UKT9 (peptide)
chain: FFCNICGASFTQKGNLLRHIKL
B25: Q9UKT9 (peptide)
chain: FCCNICGAKFTQKGNLLRHIKL
B26: Q9UKT9 (peptide)
chain: LQCNQCGFFCTQKGNLLRHIKL
B27: Q9UKT9 (peptide)
chain: FKCSVCGHQFTQKGNLLRHIKL
B28: Q9UKT9 (peptide)
chain: FWCNICGATFTQKGNLLRHIKL
B29: Q9UKT9 (peptide)
chain: FFCDQCGARFTQKGNLLRHIKL
B30: Q9UKT9 (peptide)
chain: LCCPICGFTCTQKGNLLRHIKL
B31: Q9UKT9 (peptide)
chain: FQCNQCGHKFTQKGNLLRHIKL
B32: Q9UKT9 (peptide)
chain: LRCNQCGFLCTQKGNLLRHIKL
B33: Q9UKT9 (peptide)
chain: FNCNQCGRSFTQKGNLLRHIKL
B34: Q9UKT9 (peptide)
chain: FRCNVCGANFTQKGNLLRHIKL
B35: Q9UKT9 (peptide)
chain: FICDICGAFFTQKGNLLRHIKL
B36: Q9UKT9 (peptide)
chain: FACDICGAGFTQKGNLLRHIKL
B37: Q9UKT9 (peptide)
chain: FQCPICGRFFTQKGNLLRHIKL
B38: Q9UKT9 (peptide)
chain: FICEICGAHFTQKGNLLRHIKL
B39: Q9UKT9 (peptide)
chain: FMCSVCGHNFTQKGNLLRHIKL
B40: Q9UKT9 (peptide)
chain: FACDQCGAFFTQKGNLLRHIKL
B41: Q9UKT9 (peptide)
chain: FNCPICGHEFTQKGNLLRHIKL
B42: Q9UKT9 (peptide)
chain: FGCNQCGAVFTQKGNLLRHIKL
B43: Q9UKT9 (peptide)
chain: FSCNVCGAFFTQKGNLLRHIKL
B44: Q9UKT9 (peptide)
chain: FYCEVCGASFTQKGNLLRHIKL
B45: Q9UKT9 (peptide)
chain: LQCNQCGFLCTQKGNLLRHIKL
B46: Q9UKT9 (peptide)
chain: FLCSVCGHEFTQKGNLLRHIKL
B47: Q9UKT9 (peptide)
chain: FICNVCGAGFTQKGNLLRHIKL
B48: Q9UKT9 (peptide)
chain: FMCNICGAQFTQKGNLLRHIKL
B49: Q9UKT9 (peptide)
chain: FKCEVCGAVFTQKGNLLRHIKL
B50: Q9UKT9 (peptide)
chain: FMCEICGHGFTQKGNLLRHIKL

target: no compound (DMSO); test: log2 fold change of degron read counts, EGFP-low vs EGFP+ sorted cells; higher = lower degron-EGFP level without compound (poor expression or instability); settings: compound: DMSO control; 18 h
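Also: jurkat cells carrying a lentiviral library of mutant zinc finger degrons fused to EGFP plus mCherry, mCherry+ cells FACS sorted, degron abundance counted by next-generation sequencing.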

Row | Sequence | log2 fold change of degron read counts
1 | B1 | -1.2
2 | B2 | -1.05
3 | B3 | -1.89
4 | B4 | 0.00757
5 | B5 | -1.14
6 | B6 | -1.77
7 | B7 | -1.84
8 | B8 | -1.57
9 | B9 | 0.868
10 | B10 | -0.872
11 | B11 | -0.521
12 | B12 | -1.97
13 | B13 | 0.897
14 | B14 | -0.456
15 | B15 | 0.873
16 | B16 | -0.607
17 | B17 | -0.694
18 | B18 | -2.24
19 | B19 | 0.753
20 | B20 | -0.0694
21 | B21 | -0.253
22 | B22 | -0.744
23 | B23 | -0.83
24 | B24 | 0.331
25 | B25 | -1.73

Row | Sequence | log2 fold change of degron read counts
26 | B26 | 0.614
27 | B27 | -0.96
28 | B28 | -0.12
29 | B29 | -1.45
30 | B30 | 0.626
31 | B31 | -0.505
32 | B32 | 1.2
33 | B33 | -0.12
34 | B34 | -1.06
35 | B35 | -0.453
36 | B36 | -1.41
37 | B37 | -0.0784
38 | B38 | -2.24
39 | B39 | -0.296
40 | B40 | -0.975
41 | B41 | -0.786
42 | B42 | 0.281
43 | B43 | 0.413
44 | B44 | -1.08
45 | B45 | 0.017
46 | B46 | -0.665
47 | B47 | -0.712
48 | B48 | -0.524
49 | B49 | -2.28
50 | B50 | -1.95
